Test in all cases: Viability of human cancer cell lines after 72 h of drug (GDSC screen)
Compound in test [1]: CC[C@H](Nc1ncnc2[nH]cnc12)c1nc2cccc(F)c2c(=O)n1-c1ccccc1 [CAL-101]
Here is the method: (§1)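 Human cancer cell lines in 384-well plates, medium with 10% serum, drug for 72 h over a 256-fold dose range (nine 2-fold or five 4-fold steps up to the top dose). Adherent lines were fixed and stained with the nucleic acid dye Syto60, suspension lines read with resazurin; signal relative to control wells, capped at 0 and 100%. One two-parameter sigmoid per drug and line, fitted in a mixed model over all curves with the slope shared within a line.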

Compound in test [2]: CCc1cncnc1N1CCN(Cc2nc3ccc(C(F)(F)F)cc3[nH]2)CC1 [PF-4708671]
Conditions: top dose 10 µM; top dose inferred. On the procedure:
as §1

Compound in test [3]: COc1cc2nccc(Oc3ccc(NC(=O)Nc4cc(C)on4)c(Cl)c3)c2cc1OC [AV-951]
Conditions: top dose 0.128 µM; top dose inferred. On the procedure:
as §1

Compound in test [4]: O=C(NC(COc1ccc2[nH]c(=O)[nH]c2c1)c1ccccc1)c1cccn(Cc2ccc(F)c(F)c2)c1=O [KIN001-244]
Conditions: top dose 20 µM; top dose inferred. Here is the method:
as §1

IC50 is the fitted dose that halves viability relative to control wells, and lower means more sensitive; where the fit passes the top or lowest dose, that dose stands as a limit. AUC is the area under the same curve over the 256-fold range up to the top dose, as a fraction: 1 means no effect, lower means more sensitive. For some of these results: Where the top dose is marked as inferred, it was derived from the fitted curves, not read from the paper. A value given as a limit tells only on which side of the number the result lay.

In general, IC50 refers to the concentration that inhibits the measured activity by half.

Consider “8-MG-BA (glioma, adherent, top dose 20 µM)”, for which, in test [1], the AUC stood at 0.953 and the 50% inhibitory concentration (IC50) was over 20 µM.

For “22RV1 (prostate, adherent, top dose 20 µM)”, in test [1], the AUC is 0.935 and the IC50 is over 20 µM.

For “42-MG-BA (glioma, adherent, top dose 20 µM)”, in test [1], the AUC is 0.967 and the concentration for half-maximal inhibition (IC50) is over 20 µM.

Consider “201T (lung adenocarcinoma, adherent, top dose 20 µM)”, for which, in test [1], the AUC turned out to be 0.961 and the IC50 was over 20 µM.

In the case of “451Lu (melanoma, adherent, top dose 20 µM)”, in test [1], the AUC was determined as 0.987 and the 50% inhibitory concentration (IC50) is over 20 µM.

With “639-V (bladder, adherent, top dose 20 µM)”, in test [1], the AUC was determined as 0.987 and the IC50 was over 20 µM.

Consider “647-V (bladder, adherent, top dose 20 µM)”, for which, in test [1], the AUC worked out at 0.948 and the 50% inhibitory concentration (IC50) was over 20 µM.

With “697 (lymphoblastic leukaemia, suspension, top dose 20 µM)”, in test [1], the AUC came out at 0.825 and the IC50 stood at 8.94 µM.

For “769-P (kidney, adherent, top dose 20 µM)”, in test [1], the AUC amounted to 0.945 and the IC50 is over 20 µM.

For the cell line “5637 (bladder, adherent, top dose 20 µM)”, in test [1], the AUC is 0.966 and the half-inhibitory concentration (IC50) is over 20 µM.

On to “8305C (thyroid, adherent, top dose 20 µM)”, for which, in test [1], the AUC was determined as 0.936 and the IC50 is over 20 µM.

Consider “8505C (thyroid, adherent, top dose 20 µM)”, for which, in test [1], the AUC amounted to 0.97 and the half-inhibitory concentration (IC50) is over 20 µM.

For “23132-87 (stomach, adherent, top dose 20 µM)”, in test [1], the AUC amounted to 0.958 and the half-inhibitory concentration (IC50) is over 20 µM.

For the cell line “A3-KAW (B-cell lymphoma, suspension, top dose 20 µM)”, in test [1], the AUC was determined as 0.872 and the IC50 turned out to be 12.8 µM.

“A4-Fuk (B-cell lymphoma, suspension, top dose 20 µM)”: in test [1], the AUC turned out to be 0.935 and the half-maximal inhibitory concentration (IC50) was over 20 µM.

Take “A101D (melanoma, adherent, top dose 20 µM)”: in test [1], the AUC came to 0.98 and the concentration for half-maximal inhibition (IC50) is over 20 µM.

For A172 (glioma, adherent, top dose 20 µM), in test [1], the AUC turned out to be 0.983 and the IC50 is over 20 µM.

For “A204 (rhabdomyosarcoma, adherent, top dose 20 µM)”, in test [1], the AUC came out at 0.872 and the half-maximal inhibitory concentration (IC50) was over 20 µM.

In the case of “A253 (head and neck, adherent, top dose 20 µM)”, in test [1], the AUC worked out at 0.982 and the half-inhibitory concentration (IC50) is over 20 µM.

For the cell line A388 (skin, adherent, top dose 20 µM), in test [1], the AUC amounted to 0.965 and the 50% inhibitory concentration (IC50) was over 20 µM.

With “A427 (non-small cell lung carcinoma, adherent, top dose 20 µM)”, in test [1], the AUC is 0.979 and the IC50 is over 20 µM.

For the cell line A431 (skin, adherent, top dose 20 µM), in test [1], the AUC worked out at 0.974 and the IC50 is over 20 µM.

Take A498 (kidney, adherent, top dose 20 µM): in test [1], the AUC was 0.962 and the IC50 is over 20 µM.

A549 (lung adenocarcinoma, adherent): in test [2], the AUC is 0.92 and the half-inhibitory concentration (IC50) was over 10 µM.

As to “A673 (rhabdomyosarcoma, adherent, top dose 20 µM)”, in test [1], the AUC was 0.974 and the IC50 was over 20 µM.

For the cell line A704 (kidney, adherent, top dose 20 µM), in test [1], the AUC turned out to be 0.979 and the IC50 was over 20 µM.

On to “A2058 (melanoma, adherent, top dose 20 µM)”, for which, in test [1], the AUC was 0.971 and the 50% inhibitory concentration (IC50) is over 20 µM.

In the case of “A2780 (ovary, semi-adherent, top dose 20 µM)”, in test [1], the AUC turned out to be 0.858 and the concentration for half-maximal inhibition (IC50) worked out at 17.3 µM.

Regarding “ABC-1 (lung adenocarcinoma, adherent, top dose 20 µM)”, in test [1], the AUC was 0.928 and the IC50 was over 20 µM.

Consider ACHN (kidney, adherent, top dose 20 µM), for which, in test [1], the AUC stood at 0.934 and the IC50 is over 20 µM.

For the cell line AGS (stomach, adherent, top dose 20 µM), in test [1], the AUC came out at 0.973 and the half-maximal inhibitory concentration (IC50) was over 20 µM.

Regarding “ALL-PO (lymphoblastic leukaemia, suspension, top dose 20 µM)”, in test [1], the AUC came out at 0.803 and the half-inhibitory concentration (IC50) worked out at 10.6 µM.

In the case of “ALL-SIL (T-cell leukaemia, suspension, top dose 20 µM)”, in test [1], the AUC stood at 0.85 and the half-inhibitory concentration (IC50) was 12.1 µM.

Regarding “AM-38 (glioma, semi-adherent, top dose 20 µM)”, in test [1], the AUC was 0.937 and the IC50 was over 20 µM.

For “AMO-1 (haematopoietic neoplasm, suspension, top dose 20 µM)”, in test [1], the AUC came to 0.97 and the IC50 was over 20 µM.

“AN3-CA (endometrium, adherent, top dose 20 µM)”: in test [1], the AUC stood at 0.961 and the IC50 was over 20 µM.

Consider “ARH-77 (myeloma, suspension, top dose 20 µM)”, for which, in test [1], the AUC is 0.677 and the half-inhibitory concentration (IC50) came out at 3.81 µM.

As to “ASH-3 (thyroid, adherent, top dose 20 µM)”, in test [1], the AUC was 0.987 and the half-maximal inhibitory concentration (IC50) was over 20 µM.

Take “ATN-1 (T-cell lymphoblastic leukaemia, suspension, top dose 20 µM)”: in test [1], the AUC was determined as 0.868 and the IC50 came to 16.2 µM.

In the case of “AU565 (breast, adherent, top dose 20 µM)”, in test [1], the AUC came to 0.972 and the concentration for half-maximal inhibition (IC50) was over 20 µM.

On to “AsPC-1 (pancreas, adherent, top dose 20 µM)”, for which, in test [1], the AUC turned out to be 0.919 and the 50% inhibitory concentration (IC50) is over 20 µM.

As to “BB30-HNC (head and neck, adherent, top dose 20 µM)”, in test [1], the AUC was determined as 0.946 and the IC50 is over 20 µM.

Turning to “BB49-HNC (head and neck, adherent, top dose 20 µM)”, in test [1], the AUC was determined as 0.951 and the 50% inhibitory concentration (IC50) was over 20 µM.

Regarding “BB65-RCC (kidney, adherent, top dose 20 µM)”, in test [1], the AUC stood at 0.907 and the IC50 was over 20 µM.

Regarding “BC-1 (B-cell lymphoma, suspension, top dose 20 µM)”, in test [1], the AUC was found to be 0.924 and the IC50 was over 20 µM.

In the case of “BC-3 (B-cell lymphoma, suspension, top dose 20 µM)”, in test [1], the AUC is 0.941 and the concentration for half-maximal inhibition (IC50) was over 20 µM.

On to “BCPAP (thyroid, adherent, top dose 20 µM)”, for which, in test [1], the AUC was 0.959 and the IC50 is over 20 µM.

Take “COR-L311 (small cell lung carcinoma, suspension)”: in test [3], the AUC worked out at 0.981 and the IC50 was over 0.128 µM. In test [4], the AUC stood at 0.883 and the concentration for half-maximal inhibition (IC50) is over 20 µM.

As to “K-562 (chronic myeloid leukaemia, suspension)”, in test [4], the AUC was determined as 0.85 and the IC50 turned out to be 14.5 µM.

With MM1S (myeloma, suspension), in test [2], the AUC was 0.883 and the IC50 came out at 9.77 µM.

Take “NCI-H1650 (lung adenocarcinoma, adherent)”: in test [2], the AUC turned out to be 0.958 and the IC50 is over 10 µM.

In the case of OCI-LY7 (B-cell lymphoma, suspension), in test [2], the AUC worked out at 0.962 and the IC50 was over 10 µM.

These data come from the supplement of paper PMC4967469.
